# Measured values taken from PubChem BioAssay (NCATS).
# “And” between values parts separate entries of the source, which are not always exact repeats. Equal values may be shown once. The list shows a part of the results. Shown are side measurements of this screen, not its main read-out; they come without a call. For some assays here: Compounds called inactive in the main read-out are mostly missing here. For some assays here: Words in brackets tell the shape of the fitted curve; partial curves, single points and poor fits give uncertain potencies.
# Legend:
# [1] = qHTS Assay for Lipid Storage Modulators (AID 1519); settings: Drosophila S3 cells, BODIPY lipid droplet/cell ratio, laser cytometry, cells loaded with oleic acid
# In short: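 Cells seeded at 5,000 per well were treated with compounds over a concentration series and loaded with oleic acid (400 uM, as added). Lipid droplet fluorescence (488 nm excitation, 500-530 nm channel) was read by laser-scanning cytometry and normalized to 20 uM Triacsin C.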
# [2] = S16 Schwann cell PMP22 intronic element beta-lactamase assay (AID 624044); settings: S16 rat Schwann cells, PMP22 element beta-lactamase FRET, 24 h; measured here: 460 nm blue channel; further: nearly all actives have a fitted effect of over 15% in size
# In short: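 Beta-lactamase reporter under a PMP22 intronic regulatory element in stable S16 rat Schwann cells; 24 h compound exposure. 460 nm blue signal normalized between DMSO (0%) and potassium clavulanate, with 535 nm FRET tracking viability; curves classed by r2 and response.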
# [3] = qHTS Assay for Inhibitors of PDE-IV (AID 607); settings: HEK293 ACTOne CNG channel cells, membrane potential fluorescence; measured here: parental cell counter-screen;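 further: parental cells stimulated with forskolin 10 µM plus RO 20-1724 100 µM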
# In short: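 ACTOne HEK293 cells carry a modified cAMP-gated CNG channel and express endogenous PDE4; plated 1000 cells/well, compounds up to 22.9 uM final. Membrane-potential dye fluorescence (ex 535/em 590) was read; parental cells received 10 uM forskolin + 100 uM RO 20-1724.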
# [4] = qHTS assay for small molecule antagonists of peroxisome proliferator-activated receptor delta signaling (AID 588535); settings: HEK293T PPARd-UAS-bla, beta-lactamase FRET ratio, 18 h; 460 nm channel;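 further: cells co-treated with a PPAR-delta agonist as stimulator during compound exposure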
# In short: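 Titrations were run on PPAR-delta-UAS-bla HEK293T cells in charcoal/dextran-stripped serum, incubated 18 h at 37 C. CCF4 fluorescence (460/530 nm) after 2 h RT; Hill equation yields IC50 and maximal response.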
# [5] = qHTS for identification of novel therapeutic agents for treatment of microphthalmiaassociated transcription factor (MiT) renal cell carcinoma (RCC) (AID 1963991); settings: CellTiter-Glo, 48 h; for z-score: stronger effect = lower value
# In short: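 Three TFE3-fusion RCC cell lines (UOK109, UOK124, UOK145), 500 cells/well, were exposed to the 1912-compound MIPE 4.0 library for 48 hours at 37 C. Viability was read by CellTiter-Glo luminescence, normalised to DMSO (100%) and empty wells (0%), with 11-concentration curve fits.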
# [6] = A High-Content qHTS Against Drug Library for the Identification of Small Molecules that Inhibit DYT1 Early Onset Primary Dystonia-Associated Cell Pathology (AID 1645839); settings: HEK293 Flp-In EGFP-delE TorsinA, punctate imaging, 48 h; measured here: cell count cytotoxicity
# In short: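 High-content imaging quantified EGFP-TorsinA mislocalization in HEK293-derived cells inducibly expressing DYT1 mutant torsinA, after 48 h exposure to compound given together with tetracycline induction. Cell count served as a toxicity channel alongside %pathology.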
# [7] = qHTS assay for small molecule antagonists of peroxisome proliferator-activated receptor gamma signaling (AID 588537); settings: HEK293 PPARg-UAS-bla, beta-lactamase ratio, antagonist mode; measured here: W460 blue channel
# In short: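 Antagonist-mode β-lactamase reporter screen run as a titration series. HEK293 PPARγ-UAS-bla cells are stimulated with rosiglitazone (50 nM final) for 16 h, then CCF4 is read at 460/530 nm. Data are scaled between DMSO and rosiglitazone and fitted to the Hill equation.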
# [8] = qHTS assay for small molecule agonists of retinoid X receptor alpha signaling (AID 588544); settings: HEK293T RXRa-UAS-bla, beta-lactamase reporter, 18 h; 530 nm emission
# [9] = qHTS drug screen for cell cycle checkpoint inhibitors in PARPi-resistant BRCA-mutant ovarian cancer cell lines. (AID 1963452); settings: PEO1/OlaR viability, CellTiter-Glo luminescence, 96 h
# In short: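 PEO1, PEO4 and PEO1/OlaR ovarian cancer cells, 600 per well, exposed 96 h at 37C to a dilution series. Viability read by CellTiter-Glo luminescence, normalized to DMSO and empty wells; activity summarized as Z-AUC.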
# [10] = qHTS Assay for Modulators of Human Peripheral Myelin Protein 22 (PMP22) Expression/Activity (AID 1967); settings: Cell-based PMP22 reporter, dual-color luciferase ratio; measured here: red reporter channel AC50; EF-alpha promoter control reporter in MSC80 mouse Schwann cells
# In short: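 MSC80 mouse Schwann cells stably carrying Pmp22 promoter–green click beetle luciferase plus EF-alpha–red luciferase control were dosed for 24h at 37 °C. Dual-colour luminescence was filter-overlap corrected; %Activity came from green/red ratio versus untreated cells.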
# [11] = qHTS Validation Assay to Find Inhibitors of Chronic Active B-Cell Receptor Signaling (AID 485345); settings: ABC-DLBCL cells, chronic BCR signaling reporter
# In short: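 Read-out: ratio of filter-corrected green (IkappaBalpha fusion) to red (native) luciferase signal in doxycycline-induced TMD8 cells after 4 h at 37C. Titration spanned 46 uM–3 nM; Data were normalised to basal cells and 10 uM MG-132 wells.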
# [12] = NCATS anti-infectives library activity on the primary C. elegans qHTS viability assay (AID 1745855); settings: C. elegans worm area imaging, day 7; measured here: worm number, day 3
# In short: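 GFP read-out by 488 nm laser cytometry at day 0, 3 and 7, gated on object perimeter, area and peak intensity, scored viability of PE254-GFP-FLuc worms exposed to compound in S medium with bacterial capsules at 21 °C.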
# [13] = measured here: cell count channel max response
# [14] = measured here: cell number channel AC50
# [15] = measured here: lipid (BODIPY) channel AC50
# [16] = measured here: lipid channel max response
# [17] = TFE3-RCC UOK109 viability, measured here: UOK109 Z-AUC
# [18] = TFE3-RCC viability, measured here: UOK124 Z-AUC
# [19] = TFE3-RCC viability, measured here: UOK145 Z-AUC
# [20] = TFE3-RCC viability, measured here: UOK145 cell viability
# [21] = measured here: PEO1 parental viability
# [22] = TFE3-RCC viability, measured here: UOK124 cell viability
# [23] = measured here: CBG/CBR ratio read-out
# [24] = measured here: CBR control luciferase (viability counter)
# Tags describe the fitted curve by direction and shape.
smiles,measurement,setting,value
O=C(O)CP(=O)(O)O,max response,[1]; [13],41.8%
same,AC50,[1]; [14],"3.98 µM [falling, partial curve, poor fit]"
same,AC50,[1]; [15],"3.55 µM [falling, full curve, poor fit]"
same,max response,[1]; [16],40.9%
same,AC50,[2],"0.0398 µM [falling, full curve, poor fit]"
Cc1ccc(C)c(OCCCC(C)(C)C(=O)O)c1,AC50,[3],"1.26 µM [rising, full curve]"
same,max response,[1]; [13],20.5%
same,AC50,[1]; [15],"39.8 µM [rising, partial curve, poor fit]"
same,max response,[1]; [16],42%
same,max response,[4],73.7%
same,z-score,[5]; [17],0.607
same,z-score,[5]; [18],0.452
same,z-score,[5]; [19],0.4
same,AC50,[5]; [20],"37.2 µM [falling, single point]"
CCOC(=O)c1ccc(N)cc1,max response,[1]; [13],20.1%
same,AC50,[1]; [15],"2.82 µM [rising, partial curve]"
same,max response,[1]; [16],36.7%
same,AC50,[6],"3.16 µM [falling, full curve, poor fit]"
COc1ccc2cc3[n+](cc2c1OC)CCc1cc2c(cc1-3)OCO2,max response,[1]; [13],11.4%
same,AC50,[1]; [15],"0.0251 µM [rising, full curve, poor fit]"
same,max response,[1]; [16],11.6%
same,max response,[4],29%
same,AC50,[7],"44.7 µM [rising, single point]"
same,max response,[8],24%
same,AC50,[2],"5.01 µM [falling, full curve, poor fit]"
same,AC50,[9]; [21],"0.616 µM [falling, full curve]"
same,AC50,[9]; measured here: PEO4 viability,"8.71 µM [falling, partial curve]"
same,z-score,[5]; [17],0.487
same,z-score,[5]; [18],0.109
same,AC50,[5]; [22],"16.6 µM [falling, partial curve, poor fit]"
same,z-score,[5]; [19],-0.216
N#C/C(=C\c1ccc(O)c(O)c1)C(=O)NCc1ccccc1,max response,[1]; [13],64.5% and 50.2%
same,AC50,[1]; [14],"31.6 µM [rising, partial curve, poor fit]"
same,max response,[1]; [16],15.7% and 51.9%
same,AC50,[10],"33.8 µM [falling, partial curve, poor fit]"
same,AC50,[11]; [23],"20.6 µM [falling, single point]"
same,AC50,[11]; [24],"29.1 µM [falling, single point]"
same,AC50,[9]; [21],"27.5 µM [falling, partial curve, poor fit]"
same,AC50,[9]; measured here: PEO4 viability,"24.5 µM [falling, single point]"
COc1cc2ncnc(Nc3cccc(Br)c3)c2cc1OC,max response,[1]; [13],20%
same,AC50,[1]; [14],"1.12 µM [rising, full curve, poor fit]"
same,max response,[1]; [16],32.1%
same,AC50,[9]; [21],"15.5 µM [falling, single point]"
same,z-score,[5]; [17],-3.3
same,z-score,[5]; [18],-0.162
same,AC50,[5]; [22],"0.00105 µM [falling, full curve, poor fit]"
same,z-score,[5]; [19],-1.78
same,AC50,[5]; [20],"3.72 µM [falling, partial curve]"
N#C/C(=C\c1ccc(O)c(O)c1)C(=O)NCCCc1ccccc1,max response,[1]; [13],36.9% and -35.7%
same,AC50,[1]; [14],"14.1 µM [rising, partial curve, poor fit] and 25.1 µM [falling, partial curve, poor fit]"
same,max response,[1]; [16],7.21% and -53%
same,AC50,[10],"19 µM [falling, full curve]"
same,AC50,[11]; [23],"9.2 µM [falling, partial curve]"
same,AC50,[11]; [24],"14.6 µM [falling, partial curve]"
same,AC50,[12],"25.8 µM [falling, single point]"
Cc1cc(C2CCCCC2)n(O)c(=O)c1,max response,[1]; [13],-29.1% and -27.4%
same,AC50,[1]; [15],"14.1 µM [falling, single point] and 39.8 µM [falling, single point]"
same,max response,[1]; [16],-78.1% and -74.7%
same,AC50,[2],"4.77 µM [falling, full curve, poor fit]"
same,AC50,[6],"0.562 µM [falling, full curve, poor fit]"
same,AC50,[9]; [21],"9.77 µM [falling, partial curve]"
same,AC50,[9]; measured here: PEO4 viability,"5.49 µM [falling, partial curve]"
same,z-score,[5]; [17],-0.974
same,z-score,[5]; [18],-0.469
same,AC50,[5]; [22],"4.18 µM [falling, partial curve, poor fit]"
same,z-score,[5]; [19],-0.458
same,AC50,[5]; [20],"14.8 µM [falling, partial curve]"
CC(C)(C)CC(C)(C)c1ccc(O)c(Cc2ccc(Cl)cc2Cl)c1,max response,[1]; [13],-63.6%
same,AC50,[1]; [14],"39.8 µM [falling, single point]"
same,max response,[1]; [16],-76.9%
same,AC50,[2],"25.1 µM [falling, single point]"
same,AC50,[6],"2.82 µM [falling, full curve, poor fit]"
COc1nccc(-c2c(-c3ccc(F)cc3)ncn2C2CCC(O)CC2)n1 (stereo not given),max response,[1]; [13],28.3%
same,AC50,[1]; [15],"1.41 µM [rising, full curve, poor fit]"
same,max response,[1]; [16],31.2%
same,z-score,[5]; [17],-0.0849
same,z-score,[5]; [18],0.527
same,AC50,[5]; [22],"6.62 µM [falling, partial curve, poor fit]"
same,z-score,[5]; [19],0.635
same,AC50,[5]; [20],"20.9 µM [falling, partial curve, poor fit]"
